The whole screen tested about 310,000 compounds, of which about 2,200 (0.71%) showed an effect of 50% or more. Effects have a minus sign here. The list shows a part of the results.
Target: human ether-à-go-go-related gene (hERG) potassium channel (human, UniProt Q12809)
Assay: primary screen, population patch clamp on CHO cells stably expressing hERG

Sequence of human ether-à-go-go-related gene (hERG) potassium channel (Q12809 whole entry, looked up): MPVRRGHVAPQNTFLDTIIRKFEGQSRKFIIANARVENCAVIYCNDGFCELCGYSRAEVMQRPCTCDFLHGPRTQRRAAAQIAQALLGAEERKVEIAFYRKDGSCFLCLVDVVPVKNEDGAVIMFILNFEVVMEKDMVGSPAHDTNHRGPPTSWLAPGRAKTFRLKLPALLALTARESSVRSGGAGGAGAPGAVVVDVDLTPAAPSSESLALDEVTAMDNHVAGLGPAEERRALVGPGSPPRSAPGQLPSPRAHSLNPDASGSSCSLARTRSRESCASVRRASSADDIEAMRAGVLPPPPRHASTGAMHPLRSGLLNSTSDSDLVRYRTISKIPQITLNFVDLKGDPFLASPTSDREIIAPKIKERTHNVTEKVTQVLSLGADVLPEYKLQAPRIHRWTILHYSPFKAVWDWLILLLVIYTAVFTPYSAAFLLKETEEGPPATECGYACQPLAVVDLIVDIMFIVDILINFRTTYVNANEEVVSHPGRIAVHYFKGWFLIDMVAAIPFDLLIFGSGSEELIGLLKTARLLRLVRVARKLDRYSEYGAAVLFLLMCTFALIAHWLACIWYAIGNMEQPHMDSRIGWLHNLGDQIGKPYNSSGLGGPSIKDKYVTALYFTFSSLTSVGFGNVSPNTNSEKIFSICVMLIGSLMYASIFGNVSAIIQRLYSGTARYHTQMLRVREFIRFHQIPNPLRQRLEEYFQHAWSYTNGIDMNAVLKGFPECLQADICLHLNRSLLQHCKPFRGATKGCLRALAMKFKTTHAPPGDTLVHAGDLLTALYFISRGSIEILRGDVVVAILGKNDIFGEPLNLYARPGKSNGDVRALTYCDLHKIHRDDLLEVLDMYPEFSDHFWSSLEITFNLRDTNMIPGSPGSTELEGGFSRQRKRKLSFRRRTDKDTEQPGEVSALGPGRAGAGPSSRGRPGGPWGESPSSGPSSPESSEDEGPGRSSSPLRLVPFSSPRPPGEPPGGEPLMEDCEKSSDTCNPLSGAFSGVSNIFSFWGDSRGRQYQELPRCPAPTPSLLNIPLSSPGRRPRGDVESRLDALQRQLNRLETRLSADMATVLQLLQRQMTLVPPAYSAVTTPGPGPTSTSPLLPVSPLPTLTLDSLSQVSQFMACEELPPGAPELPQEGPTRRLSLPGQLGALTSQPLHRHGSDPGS

Going from `CCCCCCCCCCCCCCCC[n+]1ccc(C(N)=O)cc1.[Br-]` to `CC(C)CC1Nc2ccc(C(=O)NCCCN3CCCCC3C)cc2NC1=O` (stereo not drawn), the “hERG current change (%, negative = inhibition) at 1uM” value falls from 11.3% to 8.78%.

Going from `CCOc1ccccc1NC(=O)CN(c1ccc(OC)cc1)S(=O)(=O)c1c(C)noc1C` to `COc1ccc(C(=O)NCc2nnc(SCC(=O)Nc3ccccc3F)o2)cc1`, the “hERG current change (%, negative = inhibition) at 1uM” value falls from 2.41% to -6.04%.

Compared with `O=C(NC1CCCC1)c1ccc(CS(=O)Cc2ccccc2Cl)o1` (stereo not drawn), `CCc1cc(Cn2nc(-c3ccccc3)cc2C(=O)NCC2CC2)on1` is lower in “hERG current change (%, negative = inhibition) at 1uM” value: -9.85% for the first, -15.4% for the second.

Going from `COCC1CCCN(C(=O)c2ccc3oc(CCCc4ccccc4)nc3c2)C1` (stereo not drawn) to `O=C(CCn1c(=O)oc2ccccc21)Nc1nc2ccccc2s1`, the “hERG current change (%, negative = inhibition) at 1uM” value falls from 0.265% to -1.36%.

Compared with `CCN(CC(=O)N1CCOCC1)S(=O)(=O)c1ccc2ccccc2c1`, `O=C(N/C(=C\c1ccc(F)cc1)C(=O)N1CCCCCC1)c1ccccc1` is lower in “hERG current change (%, negative = inhibition) at 1uM” value: 18.4% for the first, -0.76% for the second.

Compared with `COc1cccc(CN2CCN(S(=O)(=O)c3ccc(NC(C)=O)cc3)CC2)c1OC.O=C(O)C(=O)O`, `CCOC(=O)c1cnn(-c2ccccc2)c1-n1cccc1C(=O)C(=O)Nc1ccc(OC)cc1` is lower in “hERG current change (%, negative = inhibition) at 1uM” value: 10.4% for the first, 9.89% for the second.

Going from `CC(C)(C)n1nnnc1C(c1cccs1)N1CCN(c2ccccc2)CC1` (stereo not drawn) to `Cc1csc2ncnc(N3CCN(S(=O)(=O)c4cccc(C(F)(F)F)c4)CC3)c12`, the “hERG current change (%, negative = inhibition) at 1uM” value rises from -0.168% to -0.0341%.

Going from `N#Cc1c(C#N)c(O)c2ccccc2c1O` to `O=C1c2ccccc2C2(c3ccccc3)NCCN12` (stereo not drawn), the “hERG current change (%, negative = inhibition) at 1uM” value rises from 11.5% to 13%.

Going from `Nc1nnn(CC(=O)N/N=C/c2cccc(Cl)c2)n1` to `Cc1ccc2c(c1)cc1c(=O)n(CC(=O)N3CCCC3)nc(C)n12`, the “hERG current change (%, negative = inhibition) at 1uM” value rises from 6.17% to 20.1%.

Compared with `CC1(C)CC(=O)C=C(Nc2ccc3c(c2)OCCO3)C1`, `COc1ccc(-n2c(=O)c3c4c(sc3n(CC(N)=O)c2=O)CCCCC4)cc1` is higher in “hERG current change (%, negative = inhibition) at 1uM” value: 9.09% for the first, 12.7% for the second.

First: COc1ccccc1CC(=O)Nc1ccc(-c2noc(COc3cccc(C)c3C)n2)cc1
Second: CC1=NN(c2nc(-c3ccc(C)cc3)cs2)C(=O)C1N=Nc1cccc(C)c1 (stereo not drawn)
The “hERG current change (%, negative = inhibition) at 1uM” value of the first is higher: 15% for the first, 9.3% for the second.

Going from `NC1=NC2=C(CCCC2)C2(CCCCC2)S1` to `Cc1c(NC(=O)C(C)OC(=O)CCc2ccccc2)c(=O)n(-c2ccccc2)n1C` (stereo not drawn), the “hERG current change (%, negative = inhibition) at 1uM” value rises from -3.29% to 10.8%.

Reference: PMC4336329 (PLoS ONE, 2015)
